In publication PMC10484922 (2023):

Molecular target: T1, Interleukin-1R1(21–337)-His6 (human, UniProt P14778 21-337)
T1 chain: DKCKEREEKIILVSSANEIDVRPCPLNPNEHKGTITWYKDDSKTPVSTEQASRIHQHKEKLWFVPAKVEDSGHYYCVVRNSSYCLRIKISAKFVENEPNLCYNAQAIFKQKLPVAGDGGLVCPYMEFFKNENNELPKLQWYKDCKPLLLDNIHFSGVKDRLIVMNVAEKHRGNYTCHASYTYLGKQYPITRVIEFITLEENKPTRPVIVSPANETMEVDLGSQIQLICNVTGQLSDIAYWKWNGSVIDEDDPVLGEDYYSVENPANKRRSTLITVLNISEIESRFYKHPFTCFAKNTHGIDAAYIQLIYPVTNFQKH
Assay: SPR

- Kd: 3.9 nM
B1: hIL-1β^V47A-His6 (ligand)
chain: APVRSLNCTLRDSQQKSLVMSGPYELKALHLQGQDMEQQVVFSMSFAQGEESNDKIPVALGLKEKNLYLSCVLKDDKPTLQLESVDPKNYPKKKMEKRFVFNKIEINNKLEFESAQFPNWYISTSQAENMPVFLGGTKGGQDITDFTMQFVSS
